# Source: PubChem BioAssay (NCI)
# “And” between values parts separate entries of the source, which are not always exact repeats. Identical values can stand only once.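 Five compound concentrations were applied to cells in 96-well plates for 48 hours; endpoints were derived by simple linear interpolation of the resulting dose-response curve. GI50: concentration for 50% inhibition of growth. TGI: concentration producing complete growth inhibition.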
# Test system: NCI-H322M lung
# Assay: NCI-60 cell line screen, 48 h
SMILES,TGI,GI50
Cn1cnc([N+](=O)[O-])c1Sc1nnc(C(F)(F)F)n1C,> 100 µM,–
CCc1cc2c(oc3c4ccccc4ccc23)c(=O)[nH]1,> 10 µM,–
CCN1CCCCC(=N\O)/C(=N/O)CCCC1,> 100 µM,–
O=C1CC(Cl)c2c(Cl)sc(Cl)c21 (stereo unspecified),28.9 µM,–
COc1ccc(Nc2c[nH]c(=O)[nH]c2=O)cc1,> 100 µM,–
COc1cccc2c(Nc3ccc(C(=O)NCCN(C)C)cc3)cc(-c3ccccc3)nc12,48.5 µM,20.8 µM
CCOC(=O)C1(C(=O)OCC)CC=C(C)CC12C(=O)Nc1ccccc12 (stereo unspecified),> 100 µM,–
COC(=O)c1ccccc1N=Cc1ccc(N(CCC#N)S(=O)(=O)c2ccccc2)cc1,> 100 µM,–
CC(C)(C)OC(=O)N1C/C=C\C(=O)C2(OCCO2)c2ccccc21,> 100 µM,–
Cn1c(=O)c2[nH]c(-n3nc(-c4ccccc4)cc3N)nc2n(C)c1=O,38.2 µM,–
COc1ccc(-c2[nH]ncc2-c2cc(OC)c(OC)c(OC)c2)cc1,> 44.1 µM,< 0.01 µM
O=C1C=C(Nc2nc(C(=O)O)cc(=O)[nH]2)c2ccccc2C1=O,> 100 µM,–
C=CCNC(=S)OCCCCCCCCCC,81.4 µM,–
CN(Cc1ccccc1)C1(N(C)Cc2ccccc2)CC1,> 100 µM,–
c1cn[nH]c1,> 10 µM,–
C/C(=C/c1c(C)[nH]c(=O)[nH]c1=O)C(=O)O,> 1380 µM,–
O=C1C(CN2CCCC2)CCCC1CN1CCCC1 (stereo unspecified),32 µM,–
COc1cc2c3c(n(CCCNCCN4CCOCC4)c(=O)c2cc1OC)-c1cc2c(cc1C3=O)OCO2,12.8 µM and 15.1 µM,5.3 µM and 5.02 µM
O=C(O/N=C1/CCCC/C1=C\c1ccccc1)c1ccc(Cl)cc1,> 100 µM,–
CCc1cccc(C(C)CC)c1NC(=O)CC1C(=O)Nc2ccccc2S1=O (stereo unspecified),> 100 µM,–
C[C@@]12CCC[C@@](C)(C(=O)O)C1CC[C@@]13CC(=O)[C@@](CO)(CCC12)C3 (stereo partly specified),> 100 µM,> 100 µM
CS(=O)(=O)CS(=O)CS(=O)CS(=O)CC(NC(=O)CCC(N)C(=O)O)C(=O)O (stereo unspecified),> 100 µM,–
Cc1ccc(Nc2nc(NS(=O)(=O)c3cc(C)c(Cl)cc3S)n[nH]2)cc1,> 100 µM,–
COC(=O)[C@]12CC[C@@H](C)[C@H](C)[C@@H]1C1=CC[C@@H]3[C@@]4(C)C=C(O)C(=O)C(C)=C4CC[C@@]3(C)[C@]1(C)CC2,34.2 µM,18.1 µM
C/C(=N\n1c(Cc2ccccc2)n[nH]c1=O)c1ccc([N+](=O)[O-])cc1,> 100 µM,–
CC(CC(C)(C)[N+](C)(C)C)[N+](C)(C)C (stereo unspecified),> 100 µM,–

SMILES,TGI,GI50
O=C1CCC2CCOc3ccc(O)c1c32 (stereo unspecified),> 100 µM,–
OC(C(=Nc1ccccc1)c1ccccc1)c1ccccc1 (stereo unspecified),50.1 µM,–
Cc1ccc(-n2c(-c3ccc(Cl)cc3)cs/c2=N\NC(=O)COc2n[nH]c(=O)c3ccccc23)cc1,> 100 µM,56.5 µM
Nc1c(O)c(S(=O)(=O)O)c(O)c2c1C(=O)c1ccccc1C2=O,68.3 µM,3.44 µM
N#CC(=S)Nc1ccc(F)cc1,> 100 µM,–
COC(=O)C(=O)C(C#N)c1ccc(Cl)c(Cl)c1 (stereo unspecified),> 100 µM,–
CN(C)CCCC(=O)Nc1ccc(Cn2nnc3c2C(=O)c2nnn(Cc4ccc(NC(=O)CCCN(C)C)cc4)c2C3=O)cc1,17.1 µM,5.07 µM
COc1cccc(/C=N/n2c(Cc3ccc(Cl)cc3)n[nH]c2=O)c1,> 100 µM,–
CC(C)(C)c1cc(C2NC(=O)NC2=O)cc(C(C)(C)C)c1O (stereo unspecified),> 100 µM,–
COc1cc(C2c3cc4c(cc3OC(N3CCOCC3)C2C)OCO4)cc(OC)c1OC(C)=O (stereo unspecified),> 100 µM,–
O=C(/C=C/c1ccc(Cl)cc1)c1ccncc1,> 100 µM,–
Clc1ccc(-c2nn3c(C45CC6CC(CC(C6)C4)C5)nnc3s2)cc1,> 100 µM,–
Cc1nc(N)nc(N)c1N1CCN(Cc2ccccc2)CC1,> 100 µM,–
CN1CCN(c2cc(Nc3cc(C4CC4)[nH]n3)nc(Nc3ccc(CC(=O)NCc4cccc(F)c4)cc3)n2)CC1,14.4 µM,1.58 µM
Cc1ccnc2sc3ccccc3c(=O)c12,> 100 µM,–
CCOC(=O)c1cnc2c(cnn2CC)c1NN=C(C)C,> 100 µM,57.9 µM
COc1cc(/C=C/C(=O)c2cc(OC)c(OC)c(OC)c2)cc(OC)c1OC,12.7 µM,2.94 µM
CC1(CO)C(=O)OC12CCCCC2 (stereo unspecified),> 100 µM,–
O=C1c2ccccc2C2(O)Oc3cccc(O)c3C12O (stereo unspecified),> 100 µM,–
CCCCC#Cc1cccc(=O)o1,> 100 µM,> 100 µM
Cc1ccccc1NC(=O)c1sc2nc3c(cc2c1N)C(=O)CCC3,> 100 µM,5.12 µM
O=C(CC(=O)Nc1ccccc1Cl)NNC(Sc1ccccc1)c1cc(N=Nc2ccc(Br)cc2)ccc1O (stereo unspecified),3.36 µM,–
CC(C)C[C@H](NC(=O)[C@H](CCc1ccccc1)NC(=O)c1ccc2ccccc2n1)B(O)O,12.5 µM,–
COC(=O)[C@H](Cc1ccccc1)NC(=O)[C@@H](OC)[C@@H]1Cc2cc3cc(OC4CC(OC5CC(O)C(O)C(C)O5)C(O)C(C)O4)c(C)c(O)c3c(O)c2C(=O)[C@H]1OC1CC(OC2CC(OC3CC(C)(O)C(O)C(C)O3)C(O)C(C)O2)C(O)C(C)O1 (stereo partly specified),0.119 µM,0.0149 µM
COC(=O)c1cc2c(cc1Cl)SC(N(N(C)C)S(=O)(=O)c1ccc(Cl)cc1)=NS2(=O)=O,59.5 µM,20.6 µM
C/C(=N\NC(=O)N/N=C(\C)c1ccccn1)c1ccccn1,> 100 µM,–

SMILES,TGI,GI50
Cc1nn(C)c(=O)c2nn(-c3ccccc3)c(C)c12,> 100 µM,–
CN1N(c2ccccc2)C(=O)C2=NC=C(C#N)C(=N)C21C (stereo unspecified),> 100 µM,–
O=[N+]([O-])c1ccc2c(c1)S(=O)c1ccccc1-2 (stereo unspecified),> 100 µM,–
CC(C)(C)n1cc(-c2ccnc(NCCNS(=O)(=O)c3cccc4ccccc34)c2)c(-c2cccc(F)c2)n1,> 100 µM,32.8 µM
COc1cc(C2C3=C(N=C4SC(C(C)=O)=C(C)N42)c2ccccc2CC3)cc(OC)c1OC (stereo unspecified),> 100 µM,–
C=CCNc1cccc2c1C(=O)c1ccccc1C2(O)CC=C (stereo unspecified),71.9 µM,33.3 µM
CN1CCN(c2c(O)c3c(c(O)c2Cl)C(=O)C=CC3=O)CC1,3.19 µM,–
O=C(CC(=O)c1ccccc1NC1=Cc2ccccc2C(=O)C1=O)C(=O)NC1=C(Cl)C(=O)c2ccccc2C1=O,22.5 µM,–
CCc1nc(N)nc(N)c1-c1ccc(Cl)c(N=NN(C)C)c1,> 100 µM,–
NCC(=O)CCC(=O)O,> 100 µM,> 100 µM
C=C1[C@H](OCC(C)C)[C@@H](OC(=O)C(C)CC)[C@@H](O)C(C)(C)/C=C/[C@H](C)C(=O)[C@@]2(O)C[C@H](C)[C@H](O)[C@@H]2[C@H]1OC(=O)C(C)CC (stereo partly specified),> 20 µM,–
CCCC1C(C#N)(C#N)C(C#N)=C(N)C1(C)C(C)=O (stereo unspecified),> 100 µM,–
CC(C)C(/C=C/c1ccccc1)=N\NC(=S)NN,> 100 µM,–
Clc1ccc(-c2cn(-c3ccccc3)c(-c3ccccc3)n2)c(Cl)c1,14.9 µM,1.78 µM
C=C1CO[C@@H]2C[C@@H]1CCC1(C)OC1CC/C(C)=C/CC[C@@]2(C)O (stereo partly specified),> 100 µM,> 100 µM
Nc1nc(Nc2ccc3c(c2)CCC(N2CCCC2)CC3)nn1-c1cc2c(nn1)-c1ccccc1CCC2 (stereo unspecified),2 µM,0.603 µM
c1ccc(-c2nc3ccccc3n3nnnc23)cc1,> 100 µM,–
Oc1ccc(SCc2ccc(NCc3ccccc3)cc2)cc1,61.7 µM,–
O=C(Nc1cccc(C(F)(F)F)c1)c1cc(-c2ccccc2)nc(=S)[nH]1,> 100 µM,–
CCCN1C(=O)/C(=C(/O)C(=O)OCC)C(c2ccc(OC)c(OC)c2)C1=O (stereo unspecified),> 100 µM,–
Cc1cnc2[nH]c(-c3cccc(Cl)c3)cc(=O)c2c1,> 100 µM,–
CCOC(=O)CN(Cc1ccccc1)Cc1c(C(=O)c2ccccc2)c2ccccc2n1C(=O)c1ccccc1,> 100 µM,–
O=C1C(=O)c2c(nc3ncccn23)-c2ccccc21,0.36 µM,0.18 µM
O=C(Nc1ccccc1F)c1ccc(NC2=C(Cl)C(=O)N(Cc3ccccc3)C2=O)cc1,29.3 µM,15.9 µM
COc1ccc(C(=O)N/N=C/c2ccc(O)cc2O)cc1Nc1ccnc(C(F)(F)F)c1,34.3 µM,0.763 µM
CC(C)(CN1CCCCC1)C(=O)/C=C/c1c(Cl)cccc1Cl,5.03 µM,–

SMILES,TGI,GI50
CCOC(=O)O/N=C1/C(c2c(O)[nH]c3ccccc23)=Nc2ccccc21,21.9 µM,–
COc1ccc(-c2c(C#N)c(N)nc3c2CCCc2ccc(F)cc2-3)cc1OC,62.5 µM,0.0535 µM
O=C(NNCc1ccccc1O)c1ccccc1O,> 100 µM,–
C1=C[C@]2(CCC13OCCO3)COc1ccccc12,> 100 µM,–
O=c1c2cccnc2ncn1CCCN1CCOCC1,> 100 µM,–
C=CCc1cccc2cc(C(=O)Nc3nc(C45CC6CC(CC(C6)C4)C5)cs3)c(=O)oc12,> 100 µM,–
COc1cc(C)cc(OC)c1/C=C/C(=O)O,> 100 µM,–
O=[N+]([O-])c1ccc(-[n+]2ccc3ccccc3c2)c([N+](=O)[O-])c1,25.7 µM,–
Nc1ccc(-c2nc3cc(F)ccc3s2)cc1,> 100 µM,–
COc1ccc(N2C(=O)C3c4[nH]c5ccccc5c4C4CCC(C(C)(C)C)CC4C3C2=O)cc1OC (stereo unspecified),89.5 µM,–
Oc1ccccc1C=Nc1ccccc1N=Cc1ccccc1O,> 100 µM,–
COc1cccc(C2C(C#N)=C(N)Oc3cc(OC)ccc32)c1 (stereo unspecified),> 100 µM,0.0645 µM
CCOC(=O)c1ccc(NC(NC(=O)CC)(C(F)(F)F)C(F)(F)F)cc1,> 100 µM,–
CC1=CC(=O)/C(=C/N2CCNC2=S)C(=O)O1,> 100 µM,–
CC(C)=CCC/C(C)=C/CC/C(C)=C/CSc1ccc(Cl)cc1C(=O)O,33.6 µM,–
CC1=C(c2cc(C(=O)Nc3cccc(C(F)(F)F)c3)nc(NC#N)n2)Sc2ccccc2N1,> 100 µM,–
COC1(OC)c2ccccc2C2(O)c3ccccc3C(=O)C12 (stereo unspecified),> 100 µM,–
CCC(C)CC(CC)NCCN1CCN(C(CC)CC(C)CC)C1=S (stereo unspecified),10.3 µM,2.94 µM
CC1(C)CC[C@]2(C(=O)O)CC[C@]3(C)[C@H](CC[C@@H]4[C@@]5(C)CCC(=O)C(C)(C)[C@@H]5CC[C@]43C)[C@H]2[C@H]1OC(=O)C(F)(F)F,39.4 µM,17.8 µM
N#CI1OC(C(F)(F)F)(C(F)(F)F)c2ccccc21,> 100 µM,–
CCOC(=O)/C=C1/Nc2cc(F)c(F)cc2NC1=O,> 100 µM,–
CSc1nc(=O)c(C#N)c(-c2ccccc2)n1C1OC(COC(C)=O)C(OC(C)=O)C(OC(C)=O)C1OC(C)=O (stereo unspecified),> 100 µM,–
COc1ccc(Cn2cc(Cn3c(=O)c(-c4nc5ccccc5[nH]4)cc4ccccc43)nn2)c(OC)c1OC,> 100 µM,0.404 µM
CC(C)CC(=O)CC(O)C(Cl)(Cl)Cl (stereo unspecified),> 100 µM,–
